Test results as given in PubChem BioAssay AID1240 (Sanford-Burnham Center for Chemical Genomics, 2008).
About 800 (1.6%) of roughly 50,000 compounds showed an effect of 50% or more. This is one part of the list.

Each compound was assayed against Bcl-2-like protein 10 (Homo sapiens) (UniProt Q9HD36) (assay: Phenotype converters, Bcl-B/TR3 peptide binding displacement, primary biochemical FP (AID 1240;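 note: 0% = Bcl-B with tracer peptide and DMSO and 100% = tracer peptide lacking Bcl-B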)). Details: GST-Bcl-B / FITC-TR3 peptide fluorescence polarization; stronger effect = higher value; compound at 3.75 mg/L.
Chain of UniProt Q9HD36 (Q9HD36 whole entry, looked up): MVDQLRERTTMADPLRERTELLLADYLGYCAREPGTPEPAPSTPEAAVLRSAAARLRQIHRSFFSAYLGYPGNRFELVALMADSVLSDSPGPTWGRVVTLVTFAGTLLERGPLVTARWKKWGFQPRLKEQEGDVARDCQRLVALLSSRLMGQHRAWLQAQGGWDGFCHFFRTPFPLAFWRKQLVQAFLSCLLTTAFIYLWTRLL

SMILES	displacement
COc1ccc(CNC(=O)C(=O)Nc2ccc([N+](=O)[O-])cc2)cc1	14.5%
O=[N+]([O-])c1ccccc1/C=N/N/C(=N/c1ccccn1)c1ccccn1	-6%
CC/C(=C1\C(=O)N(c2nc3ccccc3s2)N=C1C(F)(F)F)N1CCCCC1	13.2%
CCOc1ccc(C2C=C(Nc3ccccc3)C(=O)N2c2ccccc2)cc1 (centres undefined)	7.7%
O=C(NC1CCCCC1)c1ccc(Cl)c(Cl)c1	3.3%
CCOc1cc(C=C2C(=O)NC(=S)NC2=O)cc(Br)c1OCCOc1ccccc1C	9.1%
O=C(Nc1ccccc1)Nc1nnc(C(c2ccccc2)c2ccccc2)s1	-0.2%
O=S(=O)(N/N=C/c1cccc(Cl)c1)c1ccc(Cl)cc1	0.9%
CCCCNCCCOc1cc(C)cc(C)c1	7.9%
CC(C)(C)c1cc(Br)ccc1OCC(=O)Nc1ccc(F)cc1	-4%
Cc1cc(C)cc(NC(=O)COc2cc(C)c(Cl)c(C)c2)c1	-6.5%
Cc1ccc(C(=O)N2CCC(C(N)=O)CC2)cc1	-3.8%
COc1ccc(-c2cc(C(=O)NN3CCN(C)CC3)c3ccccc3n2)cc1OC	1.7%
CCc1cccc(C)c1NS(=O)(=O)c1c(C)cc(C)cc1C	7.7%
CC(=O)Nc1nc(-c2ccccc2)nc(C)c1C(C)=O	-11.8%
COC(=O)c1c(C)oc2ccc(OCc3c(F)c(F)c(F)c(F)c3F)cc12	14.2%
CCCC(CCC)C(=O)Nc1ccc2c(c1)N(C(=O)CCN1CCOCC1)c1ccccc1CC2	-3.2%
Cc1ccc(N2NC(=O)/C(=C/c3cc([N+](=O)[O-])ccc3O)C2=O)cc1C	4.3%
CCOc1ccc2nc(SC3CC(=O)N(c4cc(Cl)ccc4Cl)C3=O)sc2c1 (centres undefined)	11%
CCCCCc1nc2sc3c(c2c(=O)n1N)CC(C)CC3 (centres undefined)	3.6%
O=C(O)c1ccccc1/C=C1\SC(=S)N(Cc2ccccc2)C1=O	0.7%
O=C(NCc1ccccc1)c1ccc(C2SCC(=O)N2Cc2ccccc2)cc1 (centres undefined)	0%
CC(NC(=O)CSc1nc2ccc(N)cc2s1)c1ccccc1 (centres undefined)	-2.3%
Cc1cc(C)cc(NC(=O)c2ccc(F)cc2)c1	2%
Cc1cc2c(c(=O)o1)C(c1ccc([N+](=O)[O-])cc1)C(C#N)=C(N)O2 (centres undefined)	14.4%
COc1ccc(C(=O)NC2CCSC2=O)cc1[N+](=O)[O-] (centres undefined)	1.1%
Cc1cc[n+](CC(=O)OC23CC4CC(CC(C4)C2)C3)cc1	7.9%

SMILES	displacement
CCc1ccc(-c2cc(C(=O)O)c3cc(Br)ccc3n2)s1	-8.7%
Cc1ccc(C(=O)n2cnc3ccccc32)o1	-1.6%
O=C(c1cc(F)c(F)cc1Cl)n1nnc2ccccc21	-2.8%
COc1ccc(NC(=O)c2c(C)c(-c3ccc(Cl)cc3)nc3ccccc23)c(OC)c1	-6.7%
O=C(Nc1ncc(Cc2ccccc2)s1)c1ccc([N+](=O)[O-])cc1	2.7%
COc1ccc(CNC(=O)c2cc(Cl)ccc2Cl)cc1	4.1%
COc1ccccc1NC(=O)Nc1ncccc1C	-0.5%
NNC(=O)c1ccc(NS(=O)(=O)c2ccccc2)cc1	-5.5%
O=[N+]([O-])c1ccc(C=Nc2ccc(Cl)c([N+](=O)[O-])c2)s1	7.1%
CCCCCCCCCCCCNC1CC(=O)NC1=O (centres undefined)	-8.9%
CN(C)NC(=O)c1cccc2c1-c1ccc(I)cc1C2	-1.5%
CN(C)c1cccc(C(=O)Nc2ccc(Cl)cc2Cl)c1	-2.1%
N#C/C(=C\c1ccc(-c2cccc(C(F)(F)F)c2)o1)c1ccc(Cl)cc1	-15.3%
COc1ccc(CNC(=O)Cc2ccccc2)cc1OC	0.5%
Cc1ccc2oc(-c3cccc(NC(=O)/C=C/c4cccc([N+](=O)[O-])c4)c3C)nc2c1	-24.7%
COc1ccc(NC(=O)C(=O)NCc2ccc(C)cc2)c(OC)c1	10.4%
COc1cc(C(=O)Nc2c(C)cccc2C(C)C)c(Br)c(OC)c1OC	10.5%
O=C(Nc1ccc(C(=O)Nc2ccc(Cl)cc2)cc1)c1ccccc1	14.6%
Cc1ccc(C(=O)NCc2ccccc2)o1	1.9%
COc1cccc(/C=C(/C#N)C(=O)Nc2ccc(F)cc2)c1O	30.1%
COc1ccc(NC(=O)COc2c(C)cc(C)cc2C)cc1	12.3%
Cc1cc(/C=C2\C(=O)NC(=S)N(c3ccccc3)C2=O)c(C)n1-c1ccc([N+](=O)[O-])cc1	16.8%
COC(=O)CCCN1C(=O)/C(=C/c2ccc(OC)cc2)SC1=S	1.8%
O=C(c1ccccc1Cl)N1CCN(C/C=C/c2ccccc2)CC1	2%
COc1ccc(CCNC(=O)c2cc(-c3cccc(OC)c3)nc3ccccc23)cc1	-8.4%
CCOc1ccc(N2C(=O)C3C(C2=O)C2(C)c4ccccc4C3(C)c3ccccc32)cc1 (centres undefined)	-12%
Cc1cccc(-c2nc3cc(NC(=O)c4ccc(Br)o4)ccc3o2)c1	-0.4%
